Reference: PubChem BioAssay AID1508623 (National Center for Advancing Translational Sciences (NCATS), 2021)
The whole screen tested about 48,000 compounds, of which about 450 (0.94%) were called active. Inconclusive results (about 19%) are left out. Calls follow the shape of the dose curve; as a rule, active = well fitted inhibition curve with a large enough effect; inconclusive = small, poorly fitted or top-dose-only effect; inactive = no such curve, though single readings can be large or run the other way. This is one part of the list.

Test: Primary qHTS for Identification of Small Molecule Inhibitors of Huntingtin Promoter Activity; also: nearly all actives have a fitted effect of over 50% in size
Conditions: HEK293 HTT promoter firefly luciferase reporter (activity 0% = vehicle and -100% = no light), 24 h; series mostly up to 57.5 µM; activity change, negative = inhibition: at the top concentration
Method in brief: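 HEK293 Fluc reporter, 2,500 cells/well, 24 h pre-culture; cpds up to 57.5 uM final, 24 h 37 degrees C; Dual-Glo, 10 min RT; normalized vehicle = 0%, zero RLU = -100%.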
Potency is read from the fitted curve at half-maximal effect.

Activity change, negative = inhibition, inactive:
CCc1ccc(NC(=O)CSc2nc3c([nH]c4ccccc43)c(=O)n2-c2cccc(OC)c2)cc1 -27.9%
COc1cc(C)ccc1OCCSc1nc2ccc(NC(C)=O)cc2s1 -24.7%
CCCCCn1c(=O)c2c(nc3n2CCN3c2ccc(Br)cc2)n(C)c1=O 1.92%
CCC(Sc1nnc2c3ccccc3n(C)c2n1)C(=O)Nc1nnc(C(C)C)s1 (centres undefined) 6.33%
CCOc1ccc(NC(=O)CSc2nc(=O)[nH]c3c2CCC3)cc1 -27.6%
COc1ccc(-c2cc3ccc(O)c(CN4CCCC4)c3oc2=O)cc1OC 40.5%
Cc1ccc(C)c(CNC(=O)c2sc3ncnc(N(C)C4CCCCC4)c3c2C)c1 -13.3%
Cc1cc(F)ccc1NC(=O)CCSc1nc(-c2ccco2)cc(C(F)(F)F)n1 -17.4% [at 11.5 µM]
COC(=O)COc1ccc(Oc2nc(NC(C)(C)C)nc(N(C)C)n2)nn1 -6.38%
COc1ccc(CNC(=O)c2cn(-c3cccc(OC)c3)c(=O)c3ccccc23)cc1 -9.35%
Cc1ccc(C(=O)NC2(C(F)(F)F)N=C(c3ccccc3)N(C3CCCCC3)C2=O)cc1 (centres undefined) -14.8%
CCOC(=O)c1c(C)c(-c2ccccc2)n(CC(=O)Nc2cccc(C)c2C)c1C 0.457%
COc1ccc(C(=O)NCC(c2ccc3c(c2)OCO3)N2CCOCC2)cc1OC (centres undefined) -12.6%
CCn1c(CC2C(=O)N(C)c3ccc(Br)cc32)nc2ccccc2c1=O (centres undefined) -11.3%
Cc1ccc2nc(N(Cc3cccnc3)C(=O)CCOc3ccccc3)sc2c1 -9.48%
CCc1cc2c(cc3c(=O)n(CC(=O)NCCOC)nc(CC)n32)s1 -2.7%
CCCN1C(=O)C2(c3ccccc31)c1c(oc3ccccc3c1=O)C(=O)N2CCCOC(C)C (centres undefined) -16.5%
Cc1cccc(-c2nc(SCC(=O)N(C)c3ccccc3)c3c(=O)n(C)c(=O)n(C)c3n2)c1 -1.98%
O=C(O)c1ccc(C2Nc3ccccc3-c3nnc(SCc4ccc(Cl)cc4)nc3O2)cc1 (centres undefined) 2.06%
COc1cc(OC)c(NC(=O)N2CC=C(c3c[nH]c4ccccc34)CC2)cc1Cl -26.3%
COc1cccc(C(=O)Nc2ccc(C(=O)OCc3cc(=O)n4nc(C5CC5)sc4n3)cc2)c1 -12%
Cn1c(=O)cc(SCC(=O)N2CCN(c3ccccc3)CC2)c2ccccc21 1.4%
CC1CCN(c2cc(N3CCN(C)CC3)ccc2NC(=O)c2cc(C#N)c[nH]2)CC1 -6.69%
O=C(c1cccc(Cl)c1)N1CCC(c2nc3ccccc3o2)CC1 -26%
O=C(Cn1c(=O)n2nc(-c3cccc(F)c3)nc2c2ccccc21)N1CCN(c2ccccc2F)CC1 5.49%
COc1ccc(OC)c(NC(=O)c2c(C)oc3ncnc(N4CCOCC4)c23)c1 0.69%
CC1CCN(C(=O)C(C)Sc2nc(-c3ccccc3)cc(C(F)(F)F)n2)CC1 (centres undefined) -26.9%
CCCCn1c(=O)nc2n(-c3ccc(F)cc3)c3ccccc3cc-2c1=O -12.3%
CC(Sc1nc2c([nH]c3ccccc32)c(=O)n1-c1ccccc1)c1ccccc1 (centres undefined) -22.5%
Cc1ccc(-c2cc(C(F)(F)F)n3ncc(-c4ccc(Cl)cc4)c3n2)cc1 -12.1%
COc1ccccc1NC(=O)C1=C(C)Nc2nc(SCc3cccc(F)c3)nn2C1c1ccc(C(=O)O)cc1 (centres undefined) -4.81%
COc1ccccc1N1CCN(C(=O)c2cc3c(=O)oc4ccccc4c3s2)CC1 0.293%
CCOc1ccc(N2CC(c3nc4ccccc4n3CCOc3ccccc3)CC2=O)cc1 (centres undefined) -25.1%
Cc1nc2ncnn2c(C)c1CCC(=O)NCc1cccc(Cl)c1 -3.47%
Cc1ccc(NC(=O)c2cc(S(=O)(=O)N3CCCCC3)c[nH]2)cc1F -1.3%
COc1ccc(C2C=C(c3ccccc3)Nc3nc(NC(=O)/C=C/c4ccc(Cl)cc4)nn32)cc1 (centres undefined) -20.4%
CCOC(=O)c1c(NC(=O)COc2ccc(Br)cc2)sc(C(C)=O)c1C -21.2%
CCCCc1nn2c(=O)cc(COC(=O)c3ccccc3NC(=O)c3cccc(C)c3)nc2s1 -16.3%
Cc1cccc(NC(=O)c2c(C)oc3ncnc(N4CCCCC4)c23)c1C -15.9%
CC(=O)Nc1cccc(-c2cn3cccnc3n2)c1 -13.9%
Cc1ccc(NC(=O)Cn2c(=O)n(Cc3ccccc3)c(=O)c3c2c2cc(C)ccc2n3C)cc1 -13.5%
COc1ccc2nc(NC(=O)c3cc(=O)c4cc(C)c(C)cc4o3)sc2c1 -24.4%
CCOc1ccc(C(=O)c2c(N)c(-c3nc(-c4ccc(OCC)cc4)cs3)c3ccccn23)cc1 -12.1%
CCOC(=O)CSc1nc2c(sc3ccccc32)c(=O)n1Cc1ccc(OC)cc1 -8.5%
Cc1cccc(NC(=O)c2sc(-n3nc(C)c(CCC(C)C)c3C)nc2C)c1 -19.1%
COc1ccc(CCNc2nc3cc(OC)c(OC)cc3c3nc(-c4cccnc4)nn23)cc1OC -10.8%
COc1ccc(OC)c(NC(=O)N2CCN(Cc3nc4ccc(C)cc4o3)CC2)c1 -16.7%
COc1ccc(-c2cn3c(n2)sc2cc(C(=O)Nc4ccc(C)cc4C)ccc23)cc1 1.02%
COc1cc2ccccc2cc1C(=O)Nc1ccc2oc(-c3cccc(C)c3)nc2c1 19.2%
CCOc1ccc(NC(=O)CCSc2nc(-c3ccc4c(c3)OCO4)cc(C(F)(F)F)n2)cc1 3.84%
Cc1cc(-n2nc3ccc(Cl)cc3n2)c(O)c(C(C)(C)C)c1 -1.39%
COc1ccc(-n2c3c(cc(-c4nc(-c5ccc(Cl)cc5)cs4)c2=O)C(=O)CC(C)(C)C3)cc1Cl -10.8%
Cc1ccccc1NCc1nc2ccccc2n1CCOc1ccccc1 50.7%
CCN1C(=O)c2ccccc2Sc2ccc(NC(=O)c3ccc(C#N)cc3)cc21 3.96%
O=C1NC(c2ccccc2)(c2ccccc2)C(=O)N1COP(=O)(O)O 7.64%
CN(C(=O)Cn1nnc(-c2ccc(S(C)(=O)=O)cc2)n1)c1ccccc1 -4.23%
Cc1c(C(=O)N(C)C)sc2c1c(=O)n(-c1ccccc1C(F)(F)F)c(=O)n2Cc1cccc(F)c1 -10.2%
O[C@@H]1CO[C@H]2[C@@H]1OC[C@@H]2O 5.05%
CCOC(=O)N1CCc2c(sc3c2c(=O)n(-c2ccc(F)cc2)c(=O)n3CC(=O)c2ccccc2)C1 -6.23%
Cc1cccc(CN2C(=O)c3ccccc3Sc3ccc(C(=O)NCc4cccs4)cc32)c1 -18.6%
O=C(NCCc1ccccc1)C1COc2ccccc2C1 (centres undefined) 20.3%
CCOC(=O)c1c(C)n(-c2ccccc2)c2ccc(OC(=O)c3cc(OC)cc(OC)c3)cc12 -9.83% [at 11.5 µM]
CCc1ccc(NC(=O)c2cc(C)nn2-c2ccccc2)cc1 -18.3%
Cc1cc(=O)n(CC(=O)NC(C)c2ccccc2)c2c1c(C)nn2C (centres undefined) -39.6%
CCOC(=O)c1c(NC(=O)c2cc3ccccc3c(=O)o2)sc2c1CCC(C(C)(C)C)C2 (centres undefined) -6.11%
CCOc1ccc(NC(=O)CCNS(=O)(=O)c2cccc3nsnc23)cc1 -4.02%
CCc1cccc(C)c1NC(=O)C(CC)Sc1nncn2c1cc1occc12 (centres undefined) -23.7%
CCC(=O)Nc1cc(-c2nc3ccccc3s2)c(Cl)cc1Cl -4.83%
CCS(=O)(=O)N1CCc2cc(C(=O)Nc3cc(OC)c(Cl)cc3OC)ccc21 -14.8%
COc1ccc(NC(=O)c2oc3ccccc3c2NC(=O)COc2ccc(F)cc2)c(OC)c1 -6.59%
CN1[C@H]2CC(OC(=O)[C@@H](CO)c3ccccc3)C[C@H]1[C@H]1O[C@H]12 (some centres undefined) 2.9% [at 25.2 µM]
O=C(c1ccc2c(c1)N(Cc1ccc(Cl)cc1)C(=O)c1ccccc1S2(=O)=O)N1CCc2ccccc21 -23%
CCC(C(=O)Nc1cccc(C#N)c1)n1nc(-c2ccccc2)ccc1=O (centres undefined) -26.4%
COC(=O)c1ccccc1NC(=O)CSc1nnc2cc(C)c3cc(C)cc(C)c3n12 -21.5%
Cc1ccc(NC(=O)CCCn2nc(C)c3sc4ccccc4c3c2=O)c(Cl)c1 4.51%
O=C(NCc1ccc(F)cc1)C(=O)NCC(c1ccco1)S(=O)(=O)c1cccs1 (centres undefined) -22%
O=C(Cn1ccc2cc(S(=O)(=O)N3CCCC3)ccc21)NCc1ccccc1Cl -2.72%
Cc1nnc(NCc2ccc(F)cc2)c2c1nnn2Cc1ccccc1Cl -5.18%
CCOc1ccc(NC(=O)CCn2nc(C)c(S(=O)(=O)N3CCCCC3)c2C)cc1 -26%
COc1ccccc1N1CCN(S(=O)(=O)c2c(C)sc3ncn(CC(=O)NCCN(C)C)c(=O)c23)CC1 0.095%
COc1ccc(OC)c(NC(=O)CSC2=Nc3ccccc3C3=NC(CCC(=O)NCCc4ccccc4)C(=O)N23)c1 (centres undefined) -29.8%
O=C(NCCC1=CCCCC1)c1ccc2c(c1)N(Cc1ccc(Cl)cc1)C(=O)c1ccccc1S2(=O)=O -10.6%
CCc1ccc(N2C(=O)N(CC(=O)C(C)(C)C)c3ccccc3S2(=O)=O)cc1 -12.8%
Cc1c(Cl)cccc1NC(=O)Cn1cnc(S(=O)(=O)N2CCCC2)c1 -15.9%
COc1ccc(NC(=O)CC2C(=O)N(c3ccc(C)cc3)C(=O)N2Cc2ccc(C)cc2)cc1 (centres undefined) -17.1%
CCN(CC)CCCNC(=O)c1nn(-c2ccc(OC)cc2)c(=O)c2c1c1ccccc1n2C -8.42%
Nc1ccc(S(=O)(=O)NC2(C(F)(F)F)NC(=O)N(c3cccc(Cl)c3)C2=O)cc1 (centres undefined) 1.47%
COC(=O)c1cccc(CN2C(=O)SC(Nc3ccc(Cl)cc3)C2=O)c1 (centres undefined) -17.8%
CCOC(=O)c1noc2ncnc(Nc3cccc(C(F)(F)F)c3)c12 -9.68%
CCCCOc1ccc(C(=O)Nc2nc3c(s2)CC(C)CC3)cc1 (centres undefined) -27.5%
CC(=O)Nc1ccc(NC(=O)CCc2c(C)nc3c(c(C)nn3-c3ccccc3)c2C)cc1 8.21%
COCCNC(=O)c1ccc2c(c1)N(Cc1c(F)cccc1Cl)C(=O)c1ccccc1S2 -25.3%
CCOC(=O)c1c(C)oc2nc(C)nc(NCc3ccc(OC)cc3)c12 6.71%

Potency, active:
COc1ccc(CCNC(=O)Cn2nc(C)c3c(C)n(-c4ccc(C)cc4)nc3c2=O)c(OC)c1 2510 nM
